In the RNAGym collection of RNA variant scans (doi:10.1093/nar/gkz1192) one finds self-cleavage data, which are given here for 167 variants.

First the molecules themselves.
B1: CPEB3 Ribozyme (parent)
chain: UAACAGGGGGCCACAGCAGAAGCGUUCACGUCGCAGCCCCUGUCAGAUUCUGGUGAAUCUGCGAAUUCUGCUGUAUAUCUC

Read counts are not given, so values of variants with three or more changes are uncertain.

The variants in this series derive from B1. Kind of series: self-cleavage, relative activity (ratio to wild type); higher = more cleavage; in vitro, sequencing. A digest of the protocol: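 Libraries of CPEB3 self-cleaving ribozyme mutants came from rounds of error-prone PCR and carried barcodes, which DNA sequencing matched to variants. In vitro transcription used T7 RNA polymerase at 37°C for 5 hours, with a further 15 min in DNase I before EDTA stopped the reaction; the ribozymes cleaved during both steps. The RNA was reverse transcribed with template switching and sequenced on Illumina. Relative activity is the cleaved/total read fraction of a variant divided by that of the unmutated ribozyme, averaged over three batches with at least 5 reads.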
Turning to A20G G24A A28G U31C U41C A56G, the self-cleavage was found to be 0.16. As for A20G A56G U66C, the self-cleavage was 0.14. With A20G A28U A75U, the self-cleavage was found to be 0.71.

Regarding A20G G24A C40U U41C U67C, the self-cleavage was found to be 0.18. Then A20G C27G A47G, with 0.06; and A20G A28U G61C U80A, with 0.23; and A20G C34U U43C U58C A77G, with 0.05. Then A20G C38U U43A U58C U69A G70A, with 0.11. Then G19U U25C A64G, with 0.16.

For A20G C29A U41C A64U, the self-cleavage is 0.11. Then A20G A35G A45U, with 1.12; and A20G G24U A45U U49C U69A U74C, with 0.06. Take A20G G42A U60A: the self-cleavage turned out to be 0.12. As to G19U A35G A64G U74A, the self-cleavage came out at 0.72.

As to A20G A35U U58C U74C, the self-cleavage was found to be 0.34.

Consider G19U U66C C81U, for which the self-cleavage came to 0.22. Then G19U U51C A56U, with 0.09. Turning to A20G A21G U67C U69A, the self-cleavage was 0.19. To A20G A28U U48C U72A A77C belongs 0.09; to A20G A45U U69C U76A, 0.29; to A20G A21G A56G C81A, 0.46. On to A20G G52C A56G U66C U69C U74A, for which the self-cleavage worked out at 0.2. A20G A28G U43C A56G: the self-cleavage is 0.33.

With A20G C32A C62U, the self-cleavage is 0.53.

Take A20C C39U U58C U74A: the self-cleavage stood at 0.07. To A20C A47G U72A belongs 0.13; to A20G A35G U60G, 0.81; to A20G A57C U67C, 0.44.

On to G19U U41C U78C, for which the self-cleavage is 0.28.

Regarding A20G A35G G52C U54C A57G A77G, the self-cleavage was 1.22. Then A20G A47U A56G, with 0.21; and A20G G24A A28G U31C U49C, with 0.13; and A20G A21U U54C, with 0.3. To A20G C27U C40U U43C belongs 0.23; to A20G A28G C38U U43A U49A U76A, 0.05.

For A20G A21G A64G U72C, the self-cleavage turned out to be 0.12. On to A20C U41C A57G, for which the self-cleavage was found to be 0.17.

With A20G G55A A57U U74C, the self-cleavage amounted to 0.24. With A20G A45G A64U, the self-cleavage was 0.26. Consider A20G A21G A56U U69A U78C, for which the self-cleavage was found to be 0.52. Then A20C U25A U41C U80C, with 0.13; and A20G G30A A47G U48C A57U, with 0.07; and A20G C34U U67C, with 0.32. Then A20C U43G U51A, with 0.06; and A20G A21G G52A U67C, with 0.3; and A20G A21G A57G U58C U67A, with 0.25. With A20G G33A G46A, the self-cleavage was found to be 0.42. As for A20G A28G U72C U78A, the self-cleavage stood at 0.52.

As to A20G A21G U25A C39U U48A U58C G61C, the self-cleavage came out at 0.03. Consider A20G A21U C32U U60C, for which the self-cleavage is 0.07.

A20G A28G U49A U51C A65G U74A: the self-cleavage is 0. Take A20G A35G G55C: the self-cleavage was determined as 1.2. Then A20G C29U U76C, with 0.38; and A20G A28G A75G, with 0.49; and A20G A21G U41C A45G U80A, with 0.45. As for A20C A47G U54A U58C, the self-cleavage was 0.14. In the case of A20C C29G U72C A75G, the self-cleavage is 0.2. To A20G C40U A47G G55U U78C belongs 0.12; to G19U U26C A45U, 0.18. To A20G A21U U31A U41A U58C A65G belongs 0.05; to G19U G22U U26C U51A, 0.11. Then A20C U26C C62U, with 0.18. Take A20G C23U G61C: the self-cleavage is 0.07.

A20G A21G G36U U41A U60C: the self-cleavage amounted to 0.19. On to A20G A28G A65G A77G, for which the self-cleavage was found to be 0.1.

A20G A47U U54A A65G: the self-cleavage stood at 0.14.

For the variant A20C A21G A47G A64U, the self-cleavage was determined as 0.15. Take A20G A28U C29U C44A U49G: the self-cleavage came out at 0.23. Turning to A20G A21G U41A U51C U60G A65C, the self-cleavage turned out to be 0.2. As to A20G A64G U69A, the self-cleavage came out at 0.13. To G19U C34U U51C U72A belongs 0.05; to A20C A21G A28G U41G, 0.09. For A20G C23A U72C C79A, the self-cleavage was 0.46. Then A20G A35U U51C, with 0.32; and A20G A35G C59U U60C, with 0.23; and A20G A35C U51C U58C U74C, with 0.11. Then A20G A28U U67C U76C, with 0.34.

As for A20G C37A C40A U43C U51C A64U U76C, the self-cleavage turned out to be 0.05.

In the case of G19U C27U A35U A56U A65G U69A, the self-cleavage was found to be 0.07. To A20G G36C U43C U48C A64U U67C U72C belongs 0.19; to A20G A28G U60A C68A, 0.17; to A20G A47G U76A, 0.44.

As for G19U G30A A77C, the self-cleavage came to 0.07. Turning to A20G C32U A35G C50A A64G U72C, the self-cleavage was found to be 0.07. To A20G G30A C34G U49C belongs 0.19; to A20C C40A U48C A64G, 0.19; to A20G G30U U31A U41C A47G U54A U74C, 0.27. To A20G A45G U51A belongs 0.72; to A20C U25C U26C, 0.42.

Regarding A20G A35G G63U, the self-cleavage worked out at 1.22. Then A20C U26C C59A U72C, with 0.13; and A20G C23U U26C C29U U41C A64G, with 0.04; and A20C A35G A45U U69C, with 0.18. To A20G A28G C29U U60C U67C U72A belongs 0.07; to A20G A28G U41G U43C, 0; to G19U A47G U51A, 0.1. To A20G A21G U43C belongs 0.36; to G19U G30A U60C U74C, 0.13. Regarding A20G C23U U31C U48C G61C A64G A65G, the self-cleavage turned out to be 0.02. Then A20G A21G U51C G53A U78C, with 0.5; and A20G C40A U49C U54C U72A U76C, with 0.08; and A20G C38A U41C, with 0.15. To G19U U31C U41A belongs 0.29; to A20G A64U A65G, 0.11. Then G19U U25A U41A, with 0.27. Take A20G A47G U60G G63A U74C: the self-cleavage stood at 0.17.

Consider A20G G52U U54C, for which the self-cleavage came out at 1.06. Turning to A20G G33A A35C A64G, the self-cleavage worked out at 0.13. With A20C U25C U31A, the self-cleavage was 0.1. To A20G A57G U67A belongs 0.43; to G19U U49A A65U U69A U78C, 0.06; to A20G A21G A28G C38U C44A A56U A65G, 0.03. Then A20G A45U U48C, with 0.22; and A20C C39A U41C U49C, with 0.23; and A20C C29A A35U U41A, with 0.07. To A20G A35U U49C A56G A75G belongs 0.16; to A20G G70U U74C, 0.17; to A20G C29A C37U A56U U60C G61A A64G, 0.04. With G19U A45U G46A C50U A64G U69C, the self-cleavage amounted to 0.17. Turning to A20G A28U A45G U69C, the self-cleavage was found to be 0.18. Take A20G A35U U72A: the self-cleavage came out at 0.13. On to A20G C37U U60C, for which the self-cleavage was 0.4. On to A20G A21G U31A U60C U74G, for which the self-cleavage worked out at 0.05. To A20G A21U G24C G30A U51G U58C U67C belongs 0.05; to G19U U41G U54G, 0.47. Then A20G A35C U58C A64U, with 0.1; and G19U A64U A75U, with 0.2; and A20G G30U A35G U41C U54A A57U, with 0.14.

On to G19U G30A A57G, for which the self-cleavage worked out at 0.1. To A20G A65G U69A U78C belongs 0.16. Regarding A20G C23U G36C, the self-cleavage worked out at 0.25. To A20C U31C U43A A47U A56G U60C C68U belongs 0.07; to A20G A35G U51A U58A U66C, 0.54. In the case of A20G A21G G42A, the self-cleavage was determined as 0.14. To A20G C27U U31A belongs 0.3. Then A20G C40U U41A U66C, with 0.2; and A20C C44U U54C U60C U74C, with 0.05. A20G A21G A45U A47G G70A A77G: the self-cleavage amounted to 0.09. Take A20G A28G U67C: the self-cleavage stood at 0.26. Then G19U U26C A35G A64U, with 0.39; and A20G A45G A64G U78C, with 0.38. G19U A47G U48A U80C: the self-cleavage turned out to be 0.15. On to G19U C32U U43C A45U U51C, for which the self-cleavage turned out to be 0.08. In the case of A20G C32G A57G A64G A65G, the self-cleavage is 0.12. On to A20G A28G A47G U67C U80A, for which the self-cleavage stood at 0.21.

With A20G G30A A45G U60C, the self-cleavage is 0.17. For A20G G63A G70U A77U U80C, the self-cleavage amounted to 0.16. As for A20C A47G U54C C62A, the self-cleavage came out at 0.29. Take A20G A57G U58C U74A U76A: the self-cleavage was 0.31.

As to A20G C27A U41C U51C, the self-cleavage worked out at 0.07. Consider A20G G46C U49C U58C C62U U78C U80C, for which the self-cleavage is 0. Consider A20G C29U U67C U78C, for which the self-cleavage amounted to 0.27. To A20G C38U U48A U54C U69C U72G belongs 0.15; to G19U U49G G61A U76A U78C, 0.09.

As to A20G A28G U43C U60C, the self-cleavage was found to be 0.08. To A20G C29U U43C belongs 0.11. To A20G A35U A45C U60G U69C belongs 0.16; to A20G G36A U58C U60C, 0.14. To G19U U43A A75U belongs 0.18; to A20G G36A U67C U72C U80A, 0.23. In the case of A20G G36U U72C U80C, the self-cleavage is 0.07. Take A20G C27A A64U: the self-cleavage stood at 0.25. To A20G G33A A35G G63A belongs 0.21.

As to A20G A35C U49C A56U, the self-cleavage was 0.2. For the variant G19U A47U U54C, the self-cleavage was found to be 0.12. With A20G A47U U67G, the self-cleavage was found to be 0.09.

For the variant A20G A47U U67A, the self-cleavage is 0.13.
